Consider 2 molecules from paper PMC6760808.

Amino acid sequences for entries named in this document (tags omitted).
UniProt Q92621: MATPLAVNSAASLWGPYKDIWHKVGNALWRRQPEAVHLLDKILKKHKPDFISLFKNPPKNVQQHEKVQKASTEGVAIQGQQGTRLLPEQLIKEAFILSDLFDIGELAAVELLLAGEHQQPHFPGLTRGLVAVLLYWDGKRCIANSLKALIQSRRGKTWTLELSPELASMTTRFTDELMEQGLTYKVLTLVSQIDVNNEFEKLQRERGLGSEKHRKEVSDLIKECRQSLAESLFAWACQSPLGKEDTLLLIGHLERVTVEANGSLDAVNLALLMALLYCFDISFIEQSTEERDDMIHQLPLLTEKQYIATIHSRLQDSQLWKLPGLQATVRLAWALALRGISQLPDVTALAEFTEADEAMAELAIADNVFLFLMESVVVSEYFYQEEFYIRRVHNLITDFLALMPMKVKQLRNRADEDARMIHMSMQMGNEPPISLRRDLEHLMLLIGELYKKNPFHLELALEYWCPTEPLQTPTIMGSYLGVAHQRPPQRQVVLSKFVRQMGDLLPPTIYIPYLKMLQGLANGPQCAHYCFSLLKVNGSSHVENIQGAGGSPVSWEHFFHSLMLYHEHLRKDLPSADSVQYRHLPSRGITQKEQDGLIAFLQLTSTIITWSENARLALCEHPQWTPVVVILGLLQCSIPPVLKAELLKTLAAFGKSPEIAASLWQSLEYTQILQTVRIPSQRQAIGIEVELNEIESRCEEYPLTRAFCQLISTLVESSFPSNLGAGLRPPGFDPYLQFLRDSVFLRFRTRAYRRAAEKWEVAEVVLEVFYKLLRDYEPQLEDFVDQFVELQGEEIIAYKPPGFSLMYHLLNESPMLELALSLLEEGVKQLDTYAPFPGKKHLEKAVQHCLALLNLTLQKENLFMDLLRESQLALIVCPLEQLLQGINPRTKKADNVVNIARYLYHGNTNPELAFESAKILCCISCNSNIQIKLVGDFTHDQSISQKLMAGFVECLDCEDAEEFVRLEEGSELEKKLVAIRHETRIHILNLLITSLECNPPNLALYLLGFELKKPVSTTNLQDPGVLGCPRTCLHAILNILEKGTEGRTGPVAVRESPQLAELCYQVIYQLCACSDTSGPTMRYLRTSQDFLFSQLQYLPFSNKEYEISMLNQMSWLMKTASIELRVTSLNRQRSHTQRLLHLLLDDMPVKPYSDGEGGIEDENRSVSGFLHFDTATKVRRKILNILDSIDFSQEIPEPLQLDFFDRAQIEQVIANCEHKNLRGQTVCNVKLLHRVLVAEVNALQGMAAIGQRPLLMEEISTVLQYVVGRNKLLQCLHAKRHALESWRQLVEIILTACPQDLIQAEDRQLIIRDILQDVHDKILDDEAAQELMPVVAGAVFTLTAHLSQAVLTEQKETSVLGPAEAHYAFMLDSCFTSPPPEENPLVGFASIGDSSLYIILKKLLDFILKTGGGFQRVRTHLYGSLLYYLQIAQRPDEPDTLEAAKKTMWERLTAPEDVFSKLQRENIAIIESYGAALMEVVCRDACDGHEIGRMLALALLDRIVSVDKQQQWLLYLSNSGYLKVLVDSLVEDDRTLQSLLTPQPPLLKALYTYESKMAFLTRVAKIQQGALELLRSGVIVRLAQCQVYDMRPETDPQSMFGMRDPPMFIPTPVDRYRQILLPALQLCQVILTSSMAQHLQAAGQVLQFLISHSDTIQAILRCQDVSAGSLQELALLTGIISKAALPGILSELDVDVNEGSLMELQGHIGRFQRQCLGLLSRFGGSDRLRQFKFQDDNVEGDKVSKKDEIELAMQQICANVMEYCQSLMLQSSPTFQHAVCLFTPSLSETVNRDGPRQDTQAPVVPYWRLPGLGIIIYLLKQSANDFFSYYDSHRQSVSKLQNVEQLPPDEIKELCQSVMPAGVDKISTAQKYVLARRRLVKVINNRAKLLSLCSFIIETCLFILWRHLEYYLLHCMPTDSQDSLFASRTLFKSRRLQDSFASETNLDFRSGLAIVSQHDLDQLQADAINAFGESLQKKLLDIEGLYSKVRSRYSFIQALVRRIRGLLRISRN

The target in one test is T1, NPHP4 (UniProt O75161).
T1 sequence: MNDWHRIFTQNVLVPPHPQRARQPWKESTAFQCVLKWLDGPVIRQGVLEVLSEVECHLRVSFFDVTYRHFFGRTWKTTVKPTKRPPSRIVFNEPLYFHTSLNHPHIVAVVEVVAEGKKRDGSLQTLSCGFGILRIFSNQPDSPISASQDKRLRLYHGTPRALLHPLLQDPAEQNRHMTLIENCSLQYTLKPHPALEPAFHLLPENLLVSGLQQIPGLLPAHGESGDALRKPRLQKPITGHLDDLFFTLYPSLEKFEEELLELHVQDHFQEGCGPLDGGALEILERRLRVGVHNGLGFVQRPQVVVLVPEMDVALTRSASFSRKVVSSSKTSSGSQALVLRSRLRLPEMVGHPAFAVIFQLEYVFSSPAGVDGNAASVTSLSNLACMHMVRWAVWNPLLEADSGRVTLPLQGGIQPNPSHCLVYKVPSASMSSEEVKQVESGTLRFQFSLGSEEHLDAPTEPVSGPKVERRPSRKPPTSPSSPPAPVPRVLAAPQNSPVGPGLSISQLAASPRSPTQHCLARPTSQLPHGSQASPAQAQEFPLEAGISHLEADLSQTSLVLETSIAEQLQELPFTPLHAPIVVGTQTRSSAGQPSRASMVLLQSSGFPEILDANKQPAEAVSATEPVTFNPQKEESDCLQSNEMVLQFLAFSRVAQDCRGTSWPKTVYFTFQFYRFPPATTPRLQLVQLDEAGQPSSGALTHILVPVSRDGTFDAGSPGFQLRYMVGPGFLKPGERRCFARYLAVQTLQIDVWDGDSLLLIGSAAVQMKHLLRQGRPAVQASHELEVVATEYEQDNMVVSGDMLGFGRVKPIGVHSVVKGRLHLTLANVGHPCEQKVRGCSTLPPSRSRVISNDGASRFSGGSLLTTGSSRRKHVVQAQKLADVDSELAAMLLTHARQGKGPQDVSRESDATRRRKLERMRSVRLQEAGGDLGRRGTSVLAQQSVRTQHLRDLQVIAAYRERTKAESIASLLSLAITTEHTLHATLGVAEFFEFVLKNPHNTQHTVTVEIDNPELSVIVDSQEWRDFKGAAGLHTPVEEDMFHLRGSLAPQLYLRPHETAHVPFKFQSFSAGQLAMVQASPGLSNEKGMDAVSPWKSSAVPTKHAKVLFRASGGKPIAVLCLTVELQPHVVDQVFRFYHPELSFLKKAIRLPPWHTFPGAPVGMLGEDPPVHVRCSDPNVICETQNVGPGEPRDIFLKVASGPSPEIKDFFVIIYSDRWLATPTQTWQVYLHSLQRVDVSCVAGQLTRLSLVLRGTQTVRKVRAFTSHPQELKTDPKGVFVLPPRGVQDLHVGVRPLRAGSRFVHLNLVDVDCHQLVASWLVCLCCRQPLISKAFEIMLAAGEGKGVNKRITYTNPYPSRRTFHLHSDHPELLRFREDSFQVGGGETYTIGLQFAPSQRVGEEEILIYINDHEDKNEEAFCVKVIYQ
The test is described as follows: two-hybrid; directed yeast two-hybrid by mating: AH109 with pGBKT7 (BD, bait) fusions x Y187 with pACT2 (AD, prey) fusions; growth on -leu,-trp,-his plates scored as strong, medium or weak; each mating repeated at least three times.

For another test, the target named is T2, NPHP2 (inversin) (UniProt Q9Y283).
T2 sequence: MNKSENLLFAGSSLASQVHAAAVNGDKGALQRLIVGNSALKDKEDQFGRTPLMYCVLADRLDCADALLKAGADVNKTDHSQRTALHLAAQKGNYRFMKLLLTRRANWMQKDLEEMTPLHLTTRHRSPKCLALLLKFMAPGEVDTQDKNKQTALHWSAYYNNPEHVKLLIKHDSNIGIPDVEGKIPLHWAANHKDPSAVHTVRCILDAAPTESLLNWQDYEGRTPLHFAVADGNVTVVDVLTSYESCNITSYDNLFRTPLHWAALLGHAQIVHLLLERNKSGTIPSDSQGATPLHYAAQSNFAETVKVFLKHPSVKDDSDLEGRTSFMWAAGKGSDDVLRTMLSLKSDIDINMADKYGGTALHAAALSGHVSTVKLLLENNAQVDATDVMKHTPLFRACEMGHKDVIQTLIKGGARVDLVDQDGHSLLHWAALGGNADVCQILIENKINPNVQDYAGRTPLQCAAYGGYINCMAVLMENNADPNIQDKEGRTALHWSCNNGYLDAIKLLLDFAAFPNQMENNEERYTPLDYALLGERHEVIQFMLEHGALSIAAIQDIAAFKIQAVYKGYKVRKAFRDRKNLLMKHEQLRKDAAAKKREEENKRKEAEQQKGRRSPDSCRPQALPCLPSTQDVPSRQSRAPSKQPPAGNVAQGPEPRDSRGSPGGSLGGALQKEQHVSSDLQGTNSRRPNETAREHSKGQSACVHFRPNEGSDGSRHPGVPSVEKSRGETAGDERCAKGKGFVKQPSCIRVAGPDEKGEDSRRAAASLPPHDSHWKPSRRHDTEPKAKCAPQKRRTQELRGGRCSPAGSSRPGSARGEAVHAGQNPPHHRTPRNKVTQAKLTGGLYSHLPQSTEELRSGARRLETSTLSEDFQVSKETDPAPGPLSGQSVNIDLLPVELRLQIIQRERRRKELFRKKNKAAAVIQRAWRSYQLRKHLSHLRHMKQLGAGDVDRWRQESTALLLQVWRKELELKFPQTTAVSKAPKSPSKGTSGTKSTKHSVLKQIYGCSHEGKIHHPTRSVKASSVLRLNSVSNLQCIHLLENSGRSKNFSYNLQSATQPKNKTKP
The test is described as above.

The next test has as its target T3, Cer-NPHP4-YC (UniProt O75161).
T3 sequence: T1 sequence
The test can be described thus: split reporter; BiFC: Cer-NPHP-YC co-expressed with YN-myc-Nup in NIH 3T3 cells in serum-free medium; fixed 48 hours post-transfection; YFP fluorescence at the base of the primary cilium, cells counted across two independent experiments.

These are yes or no findings as the source states them, for the method shown. For part of these data: In cells and extracts the contact can be indirect. For part of these data: Sequences can lack the tags named with a protein. Some entries that bind do so weakly or less than the wild type.

As to Nup205 (from UniProt Q92621 1-2012), the binding result with NPHP4 was “binds weakly”; with NPHP2 (inversin), “binds”.

B1: YN-myc-Nup43 (protein, UniProt Q8NFH3 1-380)
chain: MEEIYAKFVSQKISKTRWRPLPPGSLQTAETFATGSWDNEENYISLWSIGDFGNLDSDGGFEGDHQLLCDIRHHGDVMDLQFFDQERIVAASSTGCVTVFLHHPNNQTLSVNQQWTTAHYHTGPGSPSYSSAPCTGVVCNNPEIVTVGEDGRINLFRADHKEAVRTIDNADSSTLHAVTFLRTPEILTVNSIGQLKIWDFRQQGNEPSQILSLTGDRVPLHCVDRHPNQQHVVATGGQDGMLSIWDVRQGTMPVSLLKAHEAEMWEVHFHPSNPEHLFTCSEDGSLWHWDASTDVPEKSSLFHQGGRSSTFLSHSISNQANVHQSVISSWLSTDPAKDRIEITSLLPSRSLSVNTLDVLGPCLVCGTDAEAIYVTRHLFS
As for B1, the binding entry with Cer-NPHP4-YC is given as “no binding”.
